Results on 84 compounds are retold here after ChEMBL document CHEMBL4888484, “Replenishing the malaria drug discovery pipeline: Screening and hit evaluation of the MMV Hit Generation Library 1 (HGL1) against asexual blood stage Plasmodium falciparum ,using a nano luciferase reporter read-out” (2022).

The whole screen tested about 150,000 compounds, of which about 540 (0.36%) showed an effect of 50% or more. The list shows a part of the results.

The assay has as its system Plasmodium falciparum. In words: Primary screen in NF54 nanoGlo assay, in single point, at 2uM, 72h; a lower Z score goes with more inhibition. Particulars: timepoint 72 hour. In kind it is functional, Erythrocyte.
Turning to `CC1=C(C(=O)NCc2ccccc2)[C@H](c2cccc(F)c2)n2nnnc2N1`, the “% Inhibition” value was -13% and the Z score was 1.69.
For the compound `COc1cc(NC(C)=O)c(-c2c(NC(C)=O)cc(OC)c(OC)c2OC)c(OC)c1OC`, the “% Inhibition” value is recorded as -8% and the Z score is listed as 1.42.
The corresponding values for `COc1ccc([C@H]2C[C@@H]2CC(=O)NCc2cncc(O)c2)cc1` are -2% and 0.24.
As to `Cc1csc(NC(=O)CCc2cccs2)n1`, the “% Inhibition” value is on record as -14% and the Z score came to 2.63.
With `COc1cncc(O[C@H]2CCN(C(=O)N3CCOCC3)C2)n1`, the “% Inhibition” value is -6% and the Z score is listed as 0.92.
The like results for `O=C(CCCN1CCOCC1)NCC1(CO)CCC1` were, in that order, 1% and -0.17.
The like results for `CCN(CC(F)(F)F)C(=O)NCc1cnc(C)c(C)c1` were, in that order, 7% and -0.98.
In the case of `CC(C)NC(=O)CNC(=O)N1CC(C)(C)[C@H]1c1ccncc1`, the “% Inhibition” value is reported as 4% and the Z score is reported as -0.45.
The like results for `C[C@@H]1CN(Cc2nnnn2CC(=O)N(C)Cc2cc3cc(F)ccc3[nH]2)C[C@H](C)O1` were, in that order, -3% and 0.49.
On to `O=C(O)CCN(CC1CC1)C(=O)c1noc2c1CCCC2`, for which the “% Inhibition” value is reported as -2% and the Z score worked out at 0.28.
The corresponding values for `Cc1ccc(C[C@H](C)NC(=O)C2(N)CC(O)C2)c(C)c1` (stereo partly drawn) are 28% and -3.6.
The like results for `N#Cc1cc(N2CCN(c3ncc[nH]3)CC2)nc2ccc(Cl)cc12` were, in that order, 1% and -0.07.
As for `CCC[C@H]1CN(Cc2cnc(C)n2C)C[C@@H]1NC(=O)C1CCC1`, the “% Inhibition” value is -10% and the Z score is 1.93.
The like results for `Cc1ncsc1CN(C)C(=O)N[C@@H](C)c1cnn(C)c1` were, in that order, -2% and 0.24.
For `COCCNC(=O)CCNc1ncc(Cl)cc1F`, the “% Inhibition” value was -9% and the Z score is 1.17.
The like results for `C[C@]1(O)CCN(C(=O)c2ccc3c(c2)CCCC3)C[C@H]1O` were, in that order, -6% and 1.14.
Take `Cc1ccccc1C(C)NC(C)C(=O)O` (stereo not drawn): the “% Inhibition” value was 5% and the Z score is listed as -0.78.
For `Cc1cc(COCC(=O)N2CCOC3(CCC3)C2)on1`, the “% Inhibition” value is listed as -15% and the Z score is given as 1.56.
The corresponding values for `Cn1c(=O)c(Nc2ccc(Cl)cc2)c2c3c(cccc31)C(=O)c1ccccc1-2` are 2% and -0.33.
Turning to `COCCN1CC(=O)N[C@H]2CN(c3ccc(C#N)cn3)C[C@@H]2OCc2cccc(c2)Oc2cc(ccc2OC)CCC1=O`, the “% Inhibition” value was found to be 3% and the Z score is -0.39.
The like results for `CC1Oc2ccc(NC(=O)Nc3cccc(Cl)c3)cc2CN(C2CCCc3ccccc32)C1=O` (stereo not drawn) were, in that order, -7% and 0.79.
For `CC(N=C(N)NCc1ccc(Cl)cc1)C1CCCO1` (stereo not drawn), the “% Inhibition” value is given as -16% and the Z score was 1.4.
The like results for `CC(C)(C)[C@H](CO)NC(=O)c1cncnc1` were, in that order, -15% and 2.29.
The corresponding values for `CC(C)(C)c1cc(CN2C[C@@H](CN3CCCCCC3)[C@@H](CO)C2)n[nH]1` are -5% and 0.72.
`O=C(CN(Cc1cccc2nccn12)C[C@H]1CCCO1)N1CCCC1`: the “% Inhibition” value came to 5% and the Z score is reported as -0.44.
The like results for `O=C(NC[C@H](O)c1ccccc1F)Nc1ccc2c(c1)OCCO2` were, in that order, -15% and 1.4.
Regarding `Cc1nonc1CN(C)C(=O)c1cc(Cn2cnc3ccccc32)on1`, the “% Inhibition” value is on record as 2% and the Z score was -0.43.
The corresponding values for `Cc1ncc2c(n1)CCN(Cc1cn3ccccc3c1C#N)C2` are -4% and 0.58.
Turning to `C#CCN1CCC(C(=O)N(c2ccccc2)[C@@H](CC)C(=O)OC)CC1`, the “% Inhibition” value is -2% and the Z score was found to be 0.21.
The corresponding values for `C[C@@H](C(=O)N(C)C1CCCCC1)S(=O)(=O)C1CCCC1` are -9% and 1.18.
The like results for `CCn1c(-c2cccnc2)nc2cc(NC(=O)COC)cc(C(=O)NCCCN3CCOCC3)c21` were, in that order, -14% and 1.95.
With `CCN(CC(=O)Nc1ccc(OC)cc1)C(=O)c1cccc(S(=O)(=O)N2CCN(c3ccccc3)CC2)c1`, the “% Inhibition” value is -16% and the Z score is reported as 3.
Take `CCC(C)[C@@H](NC(=O)Nc1ccccc1F)C(=O)OC` (stereo partly drawn): the “% Inhibition” value stood at 8% and the Z score was -1.04.
The corresponding values for `Cn1cccc1C(=O)NCCNC(=O)[C@@H]1CCO1` are 34% and -0.78.
Consider `Fc1ccc(CN2CC(N3CCOCC3)C2)c(F)c1`, for which the “% Inhibition” value is recorded as 7% and the Z score is -1.46.
The corresponding values for `COCCN(CC(F)F)C(=O)N[C@@H](C)c1cn(C)nc1C` are -8% and 1.03.
For the compound `Cc1ccccc1[C@@H](NS(=O)(=O)C1CCS(=O)(=O)CC1)C1CC1`, the “% Inhibition” value was 1% and the Z score was -0.19.
The like results for `CCOc1nnc(CN2CCN(C(=O)c3ccco3)CC2)s1` were, in that order, -7% and 0.94.
Take `Cc1nc2c(c(N3CCCC3)n1)CCN(C(=O)c1ccc(C)[nH]c1=O)C2`: the “% Inhibition” value is recorded as -10% and the Z score is reported as 1.45.
As to `COCc1ncc(C)n1CC1CCN(C(=O)c2cc(C)n(C)n2)CC1`, the “% Inhibition” value is recorded as -11% and the Z score is given as 1.41.
The like results for `CCc1c(C)sc(NC(=O)c2cccnc2)c1C(=O)NC1CCCCC1` were, in that order, -6% and 0.73.
The corresponding values for `Cc1ccc(F)c(CN2CC[C@H]3NCCC[C@]3(C(=O)O)C2)c1Cl` are -11% and 2.05.
The like results for `O=C(NCc1cncc(N2CCCC2=O)c1)c1cccc(Cl)c1` were, in that order, -9% and 1.6.
As for `NC(=O)c1csc(C(=O)N2CC[C@@]3(CCCN(Cc4ccccc4)C3)C2)c1`, the “% Inhibition” value was 3% and the Z score was -0.43.
The corresponding values for `CCc1nc(CC)n(Cc2nc(N(C)C)no2)n1` are 8% and -0.96.
The corresponding values for `Cc1ccccc1[C@H]1C[C@H](NC(=O)NC[C@H]2CCCCN(C)C2)C1` are -5% and 0.82.
The like results for `O=C(Cn1cnc(C2CC2)cc1=O)NCc1nc(-c2cc(C3CC3)on2)no1` were, in that order, 15% and -1.84.
On to `Cn1cccc1-c1noc([C@H]2CCN(Cc3nc(-c4ccc(F)cc4)no3)C2)n1`, for which the “% Inhibition” value is -6% and the Z score was found to be 0.8.
Consider `C[C@H]1CN(CCNC(=O)Nc2cc(C(=O)N(C)C)ccn2)CCO1`, for which the “% Inhibition” value is -7% and the Z score came out at 1.24.
The like results for `CCc1ccc(C(=O)N(CC(=O)N(Cc2ccc(F)cc2)Cc2sccc2C)CC(C)C)cc1` were, in that order, -5% and 0.77.
The corresponding values for `CC(C)N(C)Cc1nnnn1CC(=O)NCc1c[nH]nc1-c1ccc(F)cc1` are 17% and -2.2.
The corresponding values for `Cc1nccn1CC(C)CNC(=O)N[C@@H]1C[C@H]1c1cccc(F)c1` (stereo partly drawn) are 11% and -1.38.
`Cc1cc(=O)c(C(=O)NCCC2=CC[C@H]3C[C@@H]2C3(C)C)cn1C`: the “% Inhibition” value is given as -9% and the Z score came to 1.46.
The corresponding values for `CC(C)(CC(N)=O)NC(=O)CN1CCN(C(=O)OC(C)(C)C)CC1` are -11% and 1.25.
The like results for `O=C(Cn1cnc2nc(N3CCOCC3)sc2c1=O)NCc1ccc2c(c1)OCO2` were, in that order, -7% and 1.21.
The like results for `CN(Cc1cscn1)C(=O)c1cnn(-c2ncc3c(n2)-c2ccccc2CCC3)c1C1CC1` were, in that order, -12% and 1.3.
In the case of `Cc1csc(Oc2ccc(NC(=O)C3CC(=O)C3)cc2F)n1`, the “% Inhibition” value is given as 11% and the Z score is -1.3.
On to `CC(C)(C)OC(=O)NCc1nnc(N)o1`, for which the “% Inhibition” value is reported as -8% and the Z score is listed as 0.96.
The like results for `Fc1cc(-c2cncc(-c3nnn[nH]3)c2)ccc1Cl` were, in that order, -11% and 2.1.
Consider `Cc1nc(C(=O)N2CCCCC2C2CCCCC2O)c(C)o1` (stereo not drawn), for which the “% Inhibition” value is -4% and the Z score was 0.85.
The like results for `COC(=O)C1(NCc2nnc(C(C)C)n2C)CCC1` were, in that order, 4% and -0.45.
As to `O=C(NCCCOc1cccnc1)c1cn(C[C@H]2COc3ccccc3O2)nn1`, the “% Inhibition” value is recorded as -9% and the Z score is reported as 1.17.
`CCc1nc(CC)n(CC(=O)Nc2cc(C)nn2C)n1`: the “% Inhibition” value was 29% and the Z score is listed as -3.33.
The corresponding values for `Cn1c(NC(=O)C2CCCCC2)c(-c2ccc(Cl)c(Cl)c2)c(=O)c2ccccc21` are 2% and -0.38.
The corresponding values for `CNC(=NCc1ccc(C)cc1OCC1CC1)NC1CC1` are -4% and 0.7.
For `CC(C)n1c(C2CCCC2)nn(C)c1=O`, the “% Inhibition” value was -9% and the Z score turned out to be 1.34.
In the case of `COc1ccc(-c2noc([C@H](C)O)c2C(=O)N2CCN(c3ccccc3OC)CC2)cc1OC`, the “% Inhibition” value is -11% and the Z score is given as 1.76.
The corresponding values for `CCOC(=O)[C@H]1CNC(=O)CC12CCN(C(=O)OC(C)(C)C)CC2` are -6% and 0.98.
The corresponding values for `Cc1nccn1CC(=O)NCC1CCN(C(=O)c2ncoc2C(C)C)CC1` are -6% and 0.75.
The like results for `COc1ccc(S(=O)(=O)Nc2ccc3n(c2=O)C[C@H]2C[C@@H]3CN(Cc3cn(C)c4ccccc34)C2)cc1` were, in that order, -6% and 0.92.
For `O=C(Nc1ccc2c(c1)OCO2)N1CCC(Oc2cccnn2)CC1`, the “% Inhibition” value is -14% and the Z score was 2.68.
The corresponding values for `Cc1ccccc1OCCCNC(=O)N1CCC2OCCN(C)C2C1` (stereo not drawn) are -4% and 0.48.
The like results for `O[C@H](COCc1ccccc1)Cc1nc(-c2ccsc2)no1` were, in that order, -15% and 1.39.
The corresponding values for `CCOc1nc(-c2cccs2)n(-c2cccc(NC(=O)c3ccc(F)cc3)c2)n1` are 10% and -1.16.
Consider `O=C1CCCN1CC(=O)N1CCC[C@H](c2[nH]ncc2-c2ccc(F)cc2)C1`, for which the “% Inhibition” value was -6% and the Z score is given as 0.84.
Take `Cn1cc(CCCNc2ccc(F)cn2)cn1`: the “% Inhibition” value turned out to be 36% and the Z score is reported as -4.83.
The like results for `CN(C1CCCCC1)S(=O)(=O)c1ccc2c(c1)CCC(=O)N2` were, in that order, -10% and 1.36.
On to `COc1ccc(Cl)cc1S(=O)(=O)N1C[C@H]2CC[C@@H](C1)N(C)C2=O`, for which the “% Inhibition” value is on record as 16% and the Z score is -2.09.
The like results for `CN(C(=O)c1nc(S(C)(=O)=O)ncc1Cl)c1ccccc1` were, in that order, 13% and -2.
Take `CC(=O)N1CCC(CNC(=O)NCC(C(C)C)C(C)C)CC1`: the “% Inhibition” value is reported as -6% and the Z score was 1.08.
The like results for `Cc1cncc([C@H](C)NCc2ccc(OC(C)(C)C)nc2)c1` were, in that order, 0% and -0.07.
The corresponding values for `O=C(Nc1ccccc1)c1cnc(NS(=O)(=O)c2ccccc2)nc1` are -14% and 2.74.
`CC(=O)N[C@@H]1C[C@H](Cc2ccccc2)O[C@H](c2ccc(Cl)cc2)C1`: the “% Inhibition” value is -5% and the Z score is reported as 0.98.
The like results for `Cc1ncn(CCNC(=O)Cc2cccnc2)c1C` were, in that order, -19% and 1.7.

A word on the % Inhibition: it is the relative decrease from the control value, in per cent.
